From the RNAGym collection of RNA variant scans (doi:10.1093/nar/gkz1192)
The source gives no read counts; variants with many changes may rest on few reads.

B1: CPEB3 Ribozyme (parent)
chain: UAACAGGGGGCCACAGCAGAAGCGUUCACGUCGCAGCCCCUGUCAGAUUCUGGUGAAUCUGCGAAUUCUGCUGUAUAUCUC

Variants of: B1
Assay: self-cleavage, relative activity (ratio to wild type); higher = more cleavage; in vitro, sequencing
In short: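 For each CPEB3 ribozyme variant, relative activity is its cleaved/total read fraction divided by the unmutated ribozyme's. Barcoded error-prone PCR libraries were transcribed by T7 RNA polymerase (5 hours, 37°C) and held in DNase I for 15 min before an EDTA stop, with cleavage occurring throughout. Template-switching reverse transcription and Illumina sequencing were used to read the RNAs. A 5-read minimum applied, and results are the mean of three batches.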

Variant	self-cleavage
U1C G9U G33C	0.05
U1C G8A A13G U51C A64C	0.05
U1C U41C A65G U72C C79U	0.37
U1C G8A A45G U51A A57G	0.32
U1C G7C A20U C32A A35G U51A U66C	0.04
U1C U58C A64G	0.38
A2G A5G A20U U66C	0.35
A2C C11G U25C U48C	0.08
U1G A18U C50U	0.37
A2G A5G A13G A15C U25C	0.38
U1C G9U C11A A65G U66C	0.05
U1G A2G U54A U66C U78A	0.32
A2C U48C U78C	0.25
U1C G10A U41A	0.21
U1C G7A C11A U49C	0.06
A2C A5G G7A C34A	0.33
U1C U25C U51A A56U U67C U78A	0.04
U1G U25C U26C G30A U49C	0.06
U1C G6A A15G U78G	0.06
U1C C4U A13G A28G C44U U72C	0.11
A2G A5G G8A G10A A64G A77U	0.09
U1C C23U A56U U67C	0.14
U1C U25C A28G C39A U48C	0.06
U1C G10A A21G U26A A35G U41C U74C	0.57

Variant	self-cleavage
A2C U60C A64G	0.21
U1G A47U U69A	0.07
U1C U43A A45U A56C U67C	0.15
U1C G8U U49A U72A	0.06
U1G U26C U31A U43C U49A U54A	0.07
U1C C11U A45G U49C A65G U66C	0.23
U1C U41A A56G A75U	0.06
A2C A15U U80A	0.84
U1C U41C U43C	0.41
A2G A5G U25C C39U U43A A56G	0.09
U1C A64G U69C	0.33
U1C C39A U58C	0.31
U1G A15G U26C	0.46
A2G A3G U78A	0.75
U1C U25C U41C	0.68
U1C C34A U41A U51A U72G	0.05
A2G A3G U80A	1.09
U1C A64G A77G	0.74
A2G A3G A15C	0.31
U1C U41G U74C A77G	0.25
U1C C11U A20G A47G A56G	0.06
A2C U25C A47G U67C	0.12
A2C G6A A56U U60A	0.27
U1C U25C U41C U72C	0.35

Variant	self-cleavage
A2C A20G U69A	0.28
U1C C11A G19U U51G A57G U76C	0.05
A2C A35U U69C U78C	0.31
A2G A5G A18G A47G A57G U69A	0.17
U1G U41A U51C A75U	0.38
U1G A2G C14A A18G U66C	0.03
U1C U31C U54G U78A	0.26
U1C G10A U80C	0.41
A2G A3G A15G A64U	0.57
A2C U58G U72C C79A	0.32
U1C U25G A28U A65G A77G U80C	0.12
A2G A5G A15G G24C U41G	0.09
U1C U51C U54C	1.04
A2G A3G U66C A75G U80A	0.13
U1C C34A U51A C79A	0.47
U1C G16U U54C U67C	0.13
A2G A3C A5U U41C A56G	0.83
U1C U41A C50U U54C	0.13
A2G A5G U26A G36A U48C A56C U72G	0.08
U1C G24A U31A A35G C40U U48C U66C	0.07
U1C U25A A35G U41C U69A U74C	0.13
U1G A20G U74C U80C	1.09
A2G A3U A18U A20C U67C	0.11
U1C G6U C12U C40U U41C U72C G73U	0.86

Variant	self-cleavage
A2G A5G G7U G10A	0.44
U1C U25C U43A A45C A64U	0.05
A2C G9A C44U U48C A56U A77G	0.06
U1C U41C U43A C44G U72C	1.08
A2C C38G U49C U69A	0.16
U1G G16A U43A C44A A45G	0.42
U1C U67C A77G	0.29
U1C U43C A56G A75U	0.15
U1C U31C C32U U51C U58C	0.07
U1G U25C U26C G30A U67A	0.22
U1C U41C G42A A45G	0.48
U1C U25C A75G	0.26
U1C U26C G53A U58C	0.08
U1C G7A A15G A18U C34U A64G U74G	0.04
U1C G16U U41C U78C	0.41
U1G C23U A28G A64G U80C	0.14
A2C U25A U60A	0.08
U1C U26C U67C G70A	0.24
U1C G10A C40A A45C U48C A64G	0.06
U1C C23U A28U U49A A56U U67C	0.05
U1G A3U A5U A21G U25C A56G	0.21
U1C U72G A77C	0.38
U1C U41A A56G	0.25
U1C U66C U80C	0.46

Variant	self-cleavage
U1G A21G U60C A77G	0.35
A2G A3G U31C U51C A56G	0.51
U1C U25C A28G A57G	0.06
A2G A3U A28C	0.45
U1G A2U A18G U54C U69C A75G	0.91
U1C C4U G63A	0.98
U1C U51A A75G	0.57
A2G A5C U76A	0.74
A2C A3G G19U A20G U43A U69A	0.64
U1C C23U U31A A35U	0.04
U1C C29G A45G U69C	0.07
U1C U51C C59A U60C	0.12
U1C G10C U26A A28U	0.06
U1C U25C A35G A45G U54C	0.35
U1C U25C C62U U80C C81U	0.06
U1C U69C C81U	0.51
U1C U26C C27A A28G C34A U60C	0.05
U1C C17U G52C U58G G63U	0.23
U1C G19U U67C U69A	0.05
U1C U41C A56G C59U U72A	0.32
U1C G10A U60C	0.19
U1C C12U A18G U49C	0.21
A2G A5G A21G	0.09
U1C G9U G24A U43C U72C	0

Variant	self-cleavage
U1C G61A A65U	0.1
U1C U31C U58A U60A U67C U76A	0.08
U1C C11U U25G U69A	0.05
U1C G8A A35G U67A	0.29
A2G A3G C12U C23U G73C U76C	0.84
U1C C11G U60A A65G	0.07
A2C A3G G19U A20G U26A U43G U51A	0.06
U1C G22A U31A	0.16
U1G A2U U60A U76C	0.22
A2C U31A G70U	0.14
A2G A5G U26A U67C U80G	0.69
U1C G33A A35U C39A A75U	0.05
U1C C11U A15G U49C A65G U66A U80A	0.09
A2G A5G C23U U49C	0.52
U1C U69C U72A U80C	0.48
U1C G7C U49A	0.38
U1C U25C U60A U67A	0.05
U1C G7U A28C	0.08
U1G A20G A21G	0.16
U1C G36A A64G	0.13
U1C U51A U58C U78A	0.17
U1C U43A U48C G55U	0.27
U1C C32U C40A A47G U49A C59A U76C	0.04
U1C U25C U31A G70A U72A C81U	0.04

Variant	self-cleavage
A2G A5G A18G U41C U48A A57G U58A	0.48
U1C C37A A45U U51C U69A	0.05
U1C G9C A21G U66C G70A	0.02
U1C A64G U80A	0.87
U1C G7U A18G U51A U54C U67A U72C	0.05
U1C G6A U25G A45G	0.33
U1C G7C G10A A20G U26C	0.44
U1C G7A C23A A35G U41A C50A A77U	0.05
U1C C29U U43A	0.66
U1C G7C U26C A56G	0.04
U1G A5G U49C U74C	0.54
U1C U26C A28G U48C U80C	0.36
A2C A5G U66C U74C	0.55
U1C U48C U80C	0.27
U1C C12U A35U U66C	0.1
A2C U66C U72C	0.19
A2C C17U A18G A57G	0.17
A2G A3G A20G U60C U69C	0.49
U1C U43G A57G A64G	0.19
U1C U51A U60C	0.52
U1C C11G A21G U25A U51C A57G U67C	0.39
A2G A5C U54A A56G U67C U74A	0.18
A2C A15U U41C U43A A65G U66C U80C	0.07
